# Data as given in PubChem BioAssay AID1347120 (National Center for Advancing Translational Sciences (NCATS), 2019).
# “And” between values parts separate entries of the source, which are not always exact repeats. Equal values may be shown once. Out of some 390,000 compounds screened, about 930 (0.24%) were called active. The shares of active, inactive and inconclusive entries below differ from those in the screen. Calls follow the shape of the dose curve; as a rule, active = well fitted activation curve with a large enough effect; inconclusive = small, poorly fitted or top-dose-only effect; inactive = no such curve, though single readings can be large or run the other way. A potency beside an inconclusive call is a rough fit, not a confirmed value.
# Test: qHTS for Suppressors of FUS Proteinopathy: Primary screen using FUS-linked yeast assay; also: nearly all actives have a fitted effect of over 55% in size;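 as to growth rescue (activation): plate controls were DMSO vehicle for no effect and reference control for full effect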
# Conditions: S. cerevisiae FUS-expressing, OD600, 24 h; Potency: growth rescue; growth rescue (activation): at 76.6 µM (top of the series)
# How it was run: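 Toxicity suppression screen in FUS-yeast. Cells induced with 2% galactose, starting OD 0.005, treated 24hr at 30C with compounds at multiple final concentrations; growth by OD600.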
# Potency is read from the fitted curve at half-maximal effect; tags tell the direction and shape of the fitted curve.
Compound,Potency,growth rescue (activation)
Cc1cccc(C)c1NC(=O)C(c1ccc(C#N)cc1)n1c(=O)c(-c2ccccc2)nc2ccccc21 (configuration not stated),"inconclusive: 10 µM [activator, partial curve]",–
Nc1c(C(=O)Nc2ccccc2Br)sc2nc(-c3cccs3)ccc12,–,inactive: 22%
COc1ccc(C(=O)Nc2oc(-c3ccccc3)c(-c3ccccc3)c2C#N)cc1,"inconclusive: 12.6 µM [activator, partial curve, poor fit]",–
COC(=O)[C@]12C[C@H](CC(=O)NCc3cccc4ccccc34)C(=O)N(CCC3=CCCCC3)C1=C[C@H](C(C)C)O[C@@H]2C1CC1,"inconclusive: 20 µM [activator, partial curve]",–
CC(=O)N1CCN(Cc2nc3cc(NC(=O)c4ccccc4Cl)ccc3n2C)CC1,–,inactive: 2.09%
Cc1cc(NC(=O)N2CCC(CN3CCCCCC3)CC2)ccc1Br,–,inactive: 10.9%
CCCNc1c(F)c(F)c2c(C)c3ccccc3nc2c1F,"inconclusive: 39.8 µM [activator, partial curve, poor fit]",–
COC(=O)c1ccc2c(=O)n(CCCCCC(=O)NCCc3ccccc3)c(=O)[nH]c2c1,"inconclusive: 28.2 µM [activator, partial curve, poor fit]",–
O=c1cc(-c2ccc(C3CCCCC3)cc2)[nH][nH]1,–,inactive: 40%
CCCCNc1c(-c2ccc(SC3CCCCC3)cc2)nc2cnccn12,"inconclusive: 38.5 µM [activator, single point] and inconclusive: 35.5 µM [activator, single point]",–
Cc1ccc(C)c(NC(=S)NNC(=O)c2csc3c2CCCC3)c1,"inconclusive: 11.2 µM [activator, partial curve, poor fit]",–
CC(C)N(Cc1ccccc1)C(=O)c1nc(-c2ccc(Cl)cc2)n2c1CCCCC2,"inconclusive: 28.2 µM [activator, single point]",–
CCCCOc1ccc(C(=O)Nc2ccc3c(c2)CCCN3C(=O)c2cccs2)cc1,"inconclusive: 31.6 µM [activator, single point]",–
CC(C)(C)c1ccc(C(=O)CCCSC2=C(C#N)C(c3ccco3)C3=C(CCCC3=O)N2)cc1 (configuration not stated),"inconclusive: 28.2 µM [activator, partial curve, poor fit]",–
CCOC(=O)C1CCN(C(=O)c2ccccc2NC(=O)c2nsc3ccccc23)CC1,"inconclusive: 31.6 µM [activator, single point]",–
O=C(COC(=O)c1ccccc1Br)Nc1ccc(F)cc1,–,inactive: -19.9%
N#Cc1cccc(-c2csc(C(O)(c3ccccc3)C(F)(F)F)n2)c1 (configuration not stated),–,inactive: 40%
